# From publication PMC12280212
# Some entries of the source have several records that differ or are many. Only these are listed. An entry can have further records. Some entries list several cross-links; each record is another pair of residues.
# How the values were obtained:
# Experiment in all cases: cross-linking mass spectrometry
# Conditions in all cases: DSSO, in cells
# [1] = target: H4C1 (UniProt P62805)
# [2] = target: HSPA5 (UniProt P11021)
# [3] = target: PPIB (UniProt P23284)
# [4] = target: SERPINH1 (UniProt P50454)
# [5] = target: CD44 (UniProt P16070)
# [6] = target: NT5E (UniProt P21589)
# [7] = target: PDIA6 (UniProt Q15084)
# [8] = target: HSPB1 (UniProt P04792)
# [9] = target: GANAB (UniProt Q14697)
# [10] = target: PDIA3 (UniProt P30101)
# [11] = target: RCN1 (UniProt Q15293)
# [12] = target: YWHAZ (UniProt P63104)
# [13] = target: TMEM109 (UniProt Q9BVC6)
# [14] = target: LGALS1 (UniProt P09382)
# [15] = target: CALR (UniProt P27797)
# [16] = target: HSP90B1 (UniProt P14625)
# [17] = target: PDIA4 (UniProt P13667)
# [18] = target: CANX (UniProt P27824)
# Chain of PRKCSH (P14314 whole entry): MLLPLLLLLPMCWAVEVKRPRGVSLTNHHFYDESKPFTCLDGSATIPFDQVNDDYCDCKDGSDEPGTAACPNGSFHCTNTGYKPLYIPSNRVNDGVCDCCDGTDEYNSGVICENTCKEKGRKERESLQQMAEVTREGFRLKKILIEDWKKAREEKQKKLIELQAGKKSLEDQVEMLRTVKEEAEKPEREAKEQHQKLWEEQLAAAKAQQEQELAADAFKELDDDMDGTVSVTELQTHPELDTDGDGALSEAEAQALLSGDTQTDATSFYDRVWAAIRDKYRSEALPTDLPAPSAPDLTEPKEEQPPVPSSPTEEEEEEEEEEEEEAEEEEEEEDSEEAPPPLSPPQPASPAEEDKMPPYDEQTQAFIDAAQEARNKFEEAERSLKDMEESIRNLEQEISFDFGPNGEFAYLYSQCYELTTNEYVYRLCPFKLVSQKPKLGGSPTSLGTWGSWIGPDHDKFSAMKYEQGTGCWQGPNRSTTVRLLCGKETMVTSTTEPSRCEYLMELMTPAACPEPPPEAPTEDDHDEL
# Chain of UniProt P30101 (P30101 whole entry): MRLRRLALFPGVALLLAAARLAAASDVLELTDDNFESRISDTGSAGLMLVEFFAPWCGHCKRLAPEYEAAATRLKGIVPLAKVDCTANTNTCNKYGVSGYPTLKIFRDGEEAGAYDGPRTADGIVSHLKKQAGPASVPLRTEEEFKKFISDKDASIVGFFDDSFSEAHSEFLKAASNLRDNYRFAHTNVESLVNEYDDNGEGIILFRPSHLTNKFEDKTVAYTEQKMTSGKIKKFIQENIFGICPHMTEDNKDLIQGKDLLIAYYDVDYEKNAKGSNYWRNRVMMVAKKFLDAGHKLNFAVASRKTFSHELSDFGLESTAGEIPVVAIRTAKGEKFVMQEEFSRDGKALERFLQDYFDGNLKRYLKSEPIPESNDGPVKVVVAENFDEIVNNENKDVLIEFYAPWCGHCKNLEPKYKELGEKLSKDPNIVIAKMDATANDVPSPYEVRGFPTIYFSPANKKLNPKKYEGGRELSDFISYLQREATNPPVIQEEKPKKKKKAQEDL
# Chain of PPIB, P23284 (P23284 whole entry): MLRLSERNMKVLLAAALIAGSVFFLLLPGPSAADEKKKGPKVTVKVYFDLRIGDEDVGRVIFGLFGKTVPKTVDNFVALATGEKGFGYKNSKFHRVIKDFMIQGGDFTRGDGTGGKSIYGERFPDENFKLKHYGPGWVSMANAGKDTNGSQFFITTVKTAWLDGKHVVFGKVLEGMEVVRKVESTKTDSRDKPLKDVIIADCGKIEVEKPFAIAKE
# Chain of CALR, P27797 (P27797 whole entry): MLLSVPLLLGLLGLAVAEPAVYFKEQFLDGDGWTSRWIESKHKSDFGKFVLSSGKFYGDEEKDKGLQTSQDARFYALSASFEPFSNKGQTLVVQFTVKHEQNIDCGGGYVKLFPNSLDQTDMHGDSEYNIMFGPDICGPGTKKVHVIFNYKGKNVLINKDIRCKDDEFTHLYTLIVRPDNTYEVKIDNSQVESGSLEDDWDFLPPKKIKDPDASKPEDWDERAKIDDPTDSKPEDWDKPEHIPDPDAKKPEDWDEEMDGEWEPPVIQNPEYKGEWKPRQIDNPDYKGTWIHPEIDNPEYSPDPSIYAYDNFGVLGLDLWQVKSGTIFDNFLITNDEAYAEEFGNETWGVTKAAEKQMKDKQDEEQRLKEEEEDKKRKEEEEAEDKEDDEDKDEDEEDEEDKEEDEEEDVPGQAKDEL
# Chain of UniProt Q14697 (Q14697 whole entry): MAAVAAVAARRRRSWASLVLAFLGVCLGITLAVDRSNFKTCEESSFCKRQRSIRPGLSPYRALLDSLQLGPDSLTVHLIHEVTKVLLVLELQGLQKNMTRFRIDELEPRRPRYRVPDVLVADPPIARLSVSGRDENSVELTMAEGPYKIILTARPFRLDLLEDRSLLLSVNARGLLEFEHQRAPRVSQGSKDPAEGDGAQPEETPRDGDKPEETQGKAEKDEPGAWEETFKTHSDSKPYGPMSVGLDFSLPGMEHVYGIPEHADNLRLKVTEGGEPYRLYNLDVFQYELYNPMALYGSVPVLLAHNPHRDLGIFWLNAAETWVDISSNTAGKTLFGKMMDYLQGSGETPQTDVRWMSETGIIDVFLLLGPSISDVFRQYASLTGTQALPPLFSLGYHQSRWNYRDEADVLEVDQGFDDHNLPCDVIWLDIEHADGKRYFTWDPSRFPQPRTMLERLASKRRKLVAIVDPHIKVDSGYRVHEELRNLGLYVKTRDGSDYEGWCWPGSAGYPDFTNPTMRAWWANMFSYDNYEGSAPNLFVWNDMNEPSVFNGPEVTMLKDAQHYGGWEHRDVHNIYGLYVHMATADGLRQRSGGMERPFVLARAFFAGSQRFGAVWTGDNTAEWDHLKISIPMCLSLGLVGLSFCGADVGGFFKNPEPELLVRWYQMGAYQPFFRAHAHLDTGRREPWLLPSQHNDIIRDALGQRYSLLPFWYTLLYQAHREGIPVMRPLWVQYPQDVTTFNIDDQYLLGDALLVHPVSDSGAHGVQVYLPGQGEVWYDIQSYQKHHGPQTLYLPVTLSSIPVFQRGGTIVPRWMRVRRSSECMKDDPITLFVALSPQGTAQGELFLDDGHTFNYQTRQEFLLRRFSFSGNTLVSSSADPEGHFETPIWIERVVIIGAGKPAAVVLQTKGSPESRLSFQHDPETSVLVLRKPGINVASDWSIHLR
# Chain of ANXA6 (P08133 whole entry): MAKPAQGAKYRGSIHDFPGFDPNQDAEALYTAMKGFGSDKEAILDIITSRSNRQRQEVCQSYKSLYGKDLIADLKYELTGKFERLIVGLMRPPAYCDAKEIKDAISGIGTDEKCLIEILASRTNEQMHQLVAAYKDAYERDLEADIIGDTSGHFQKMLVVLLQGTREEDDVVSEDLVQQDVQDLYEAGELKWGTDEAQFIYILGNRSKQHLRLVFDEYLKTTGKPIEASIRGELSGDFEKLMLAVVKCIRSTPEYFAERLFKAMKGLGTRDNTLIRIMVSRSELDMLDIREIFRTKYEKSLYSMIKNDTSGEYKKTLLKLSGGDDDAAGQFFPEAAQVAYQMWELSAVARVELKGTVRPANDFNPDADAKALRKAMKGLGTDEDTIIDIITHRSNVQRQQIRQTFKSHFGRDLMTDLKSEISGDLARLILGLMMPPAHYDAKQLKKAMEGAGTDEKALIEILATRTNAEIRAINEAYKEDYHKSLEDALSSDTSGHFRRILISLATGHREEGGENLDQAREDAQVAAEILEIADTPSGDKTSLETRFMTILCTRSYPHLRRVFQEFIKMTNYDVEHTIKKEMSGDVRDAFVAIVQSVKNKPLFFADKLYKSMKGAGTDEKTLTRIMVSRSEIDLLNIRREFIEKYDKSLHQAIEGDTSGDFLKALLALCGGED
# Chain of CALU (O43852 whole entry): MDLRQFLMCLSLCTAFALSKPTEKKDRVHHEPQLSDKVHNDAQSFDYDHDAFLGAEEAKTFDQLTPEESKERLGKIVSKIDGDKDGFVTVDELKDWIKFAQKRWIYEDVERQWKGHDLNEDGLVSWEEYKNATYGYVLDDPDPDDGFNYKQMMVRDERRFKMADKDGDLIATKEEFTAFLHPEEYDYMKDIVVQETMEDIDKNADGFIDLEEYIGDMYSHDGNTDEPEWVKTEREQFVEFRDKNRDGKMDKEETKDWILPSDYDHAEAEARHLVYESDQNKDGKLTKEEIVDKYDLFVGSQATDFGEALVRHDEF
# Chain of CANX, P27824 (P27824 whole entry): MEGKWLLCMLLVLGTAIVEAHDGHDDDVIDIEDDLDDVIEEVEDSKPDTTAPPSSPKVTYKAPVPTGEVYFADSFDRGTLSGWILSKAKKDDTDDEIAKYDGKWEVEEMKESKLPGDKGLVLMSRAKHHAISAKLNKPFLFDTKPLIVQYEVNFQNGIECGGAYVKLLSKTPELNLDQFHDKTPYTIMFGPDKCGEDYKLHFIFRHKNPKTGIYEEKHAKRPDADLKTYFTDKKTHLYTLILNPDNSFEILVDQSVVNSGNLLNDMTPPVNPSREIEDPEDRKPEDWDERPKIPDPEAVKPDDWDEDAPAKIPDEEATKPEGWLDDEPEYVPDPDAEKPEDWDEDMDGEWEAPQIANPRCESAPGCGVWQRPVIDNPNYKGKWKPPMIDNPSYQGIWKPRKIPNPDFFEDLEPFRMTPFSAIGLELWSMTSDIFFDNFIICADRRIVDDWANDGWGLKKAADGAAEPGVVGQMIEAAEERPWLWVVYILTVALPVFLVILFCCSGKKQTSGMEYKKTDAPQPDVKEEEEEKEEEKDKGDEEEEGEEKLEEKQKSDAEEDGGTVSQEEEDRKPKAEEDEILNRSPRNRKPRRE
# Chain of HSPA5, P11021 (P11021 whole entry): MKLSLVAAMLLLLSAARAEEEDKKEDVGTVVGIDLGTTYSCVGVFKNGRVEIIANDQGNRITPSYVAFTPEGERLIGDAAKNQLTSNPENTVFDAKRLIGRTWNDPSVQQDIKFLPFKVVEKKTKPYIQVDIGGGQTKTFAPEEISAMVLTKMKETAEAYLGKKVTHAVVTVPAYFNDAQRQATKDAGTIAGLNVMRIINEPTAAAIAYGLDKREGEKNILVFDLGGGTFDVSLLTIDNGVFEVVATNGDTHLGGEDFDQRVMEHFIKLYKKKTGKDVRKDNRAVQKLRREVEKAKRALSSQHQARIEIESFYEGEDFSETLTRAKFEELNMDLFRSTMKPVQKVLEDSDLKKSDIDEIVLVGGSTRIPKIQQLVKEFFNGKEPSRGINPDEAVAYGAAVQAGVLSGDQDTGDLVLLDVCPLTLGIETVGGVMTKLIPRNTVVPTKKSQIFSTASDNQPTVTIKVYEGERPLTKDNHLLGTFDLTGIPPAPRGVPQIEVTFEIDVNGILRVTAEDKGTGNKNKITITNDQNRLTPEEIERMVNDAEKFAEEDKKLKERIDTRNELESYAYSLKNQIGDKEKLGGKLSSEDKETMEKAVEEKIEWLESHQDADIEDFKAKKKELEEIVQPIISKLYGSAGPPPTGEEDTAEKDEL
# Chain of LGALS1, P09382 (P09382 whole entry): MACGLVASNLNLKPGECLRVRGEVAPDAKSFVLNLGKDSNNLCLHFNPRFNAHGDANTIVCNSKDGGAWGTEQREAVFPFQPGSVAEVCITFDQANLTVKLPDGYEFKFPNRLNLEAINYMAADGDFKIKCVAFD
substance,measurement,setting,value
"BANF1, O75531",cross-linked residues,[1],K32 - K9 and K32 - K32 and K32 - K78
"CALU, O43852",cross-linked residues,[2],K281 - K340 and K281 - K352 and K281 - K370 and K281 - K523 and K281 - K579
same,cross-linked residues,[3],K79 - K116 and K281 - K116
same,cross-linked residues,[4],K75 - K332 and K79 - K319
"LGALS1, P09382",cross-linked residues,[5],K29 - K158 and K108 - K158
same,cross-linked residues,[6],K29 - K67 and K108 - K67
"HSP90B1, P14625",cross-linked residues,[7],K597 - K150 and K597 - K159 and K633 - K150
same,cross-linked residues,[3],K161 - K92 and K348 - K92 and K547 - K84 and K547 - K116 and K597 - K92 and K597 - K186 and K603 - K116 and K633 - K92 and K633 - K116 and K633 - K186 and K671 - K116 and K682 - K116
same,cross-linked residues,[4],K547 - K190 and K603 - K410 and K671 - K39
"CRYAB, P02511",cross-linked residues,[8],K150 - K114 and K150 - K198
"CALR, P27797",cross-linked residues,[9],K153 - K908 and K360 - K908
same,cross-linked residues,[10],K41 - K332 and K43 - K82 and K43 - K94 and K43 - K104 and K43 - K130 and K43 - K425 and K43 - K466 and K43 - K494 and K62 - K466 and K64 - K104 and K64 - K130 and K64 - K466 and K143 - K130 and K153 - K82 and K153 - K94 and K153 - K104 and K153 - K129 and K153 - K130 and K153 - K214 and K153 - K226 and K153 - K460 and K209 - K75 and K209 - K82 and K209 - K94 and K209 - K104 and K209 - K129 and K209 - K130 and K215 - K75 and K215 - K82 and K360 - K82 and K360 - K104 and K360 - K214 and K360 - K226 and K360 - K417 and K360 - K460 and K360 - K494 and K368 - K417 and K368 - K422 and K368 - K425 and K368 - K466 and K368 - K494 and K374 - K332 and K374 - K415 and K374 - K417 and K374 - K422 and K374 - K425 and K374 - K460 and K374 - K494
same,cross-linked residues,[7],K43 - K150 and K153 - K150 and K360 - K150 and K368 - K150
same,cross-linked residues,[11],K153 - K299 and K209 - K86
same,cross-linked residues,[4],K41 - K39 and K43 - K190 and K43 - K287 and K62 - K39 and K62 - K190 and K62 - K410 and K143 - K39 and K153 - K39 and K153 - K190 and K153 - K252 and K153 - K332 and K209 - K39 and K209 - K190 and K360 - K39 and K360 - K190 and K360 - K252 and K360 - K287 and K360 - K308 and K360 - K332 and K360 - K334 and K360 - K410 and K360 - K413 and K368 - K39 and K374 - K334 and K374 - K413
"YWHAG, P61981",cross-linked residues,[12],M1 - K74 and K10 - K74
"ANXA6, P08133",cross-linked residues,[5],K63 - K681 and K63 - K695 and K354 - K739 and K600 - K715
"CANX, P27824",cross-linked residues,[10],K89 - K130 and K90 - K104 and K90 - K130 and K90 - K332 and K90 - K466
same,cross-linked residues,[13],K233 - K46 and K507 - K215 and K516 - K215 and K525 - K235 and K537 - K235
"CD63, P08962",cross-linked residues,[14],K162 - K29 and K162 - K108
"HSPA5, P11021",cross-linked residues,[15],K185 - K360 and K340 - K43 and K340 - K62 and K340 - K64 and K340 - K360 and K340 - K374 and K370 - K41 and K370 - K43 and K370 - K62 and K370 - K153 and K370 - K360 and K376 - K43 and K376 - K153 and K516 - K360 and K523 - K43 and K523 - K209 and K523 - K360 and K547 - K153 and K579 - K43 and K579 - K360 and K596 - K153 and K596 - K360
same,cross-linked residues,[16],K164 - K161 and K164 - K168 and K213 - K547 and K340 - K348 and K344 - K348 and K370 - K597 and K523 - K671 and K547 - K537 and K547 - K597 and K547 - K671 and K573 - K633 and K579 - K537 and K579 - K597 and K579 - K633 and K579 - K671 and K579 - K682 and K621 - K633 and K621 - K671
same,cross-linked residues,[10],K370 - K289 and K370 - K460
same,cross-linked residues,[17],K340 - K163 and K523 - K245
same,cross-linked residues,[7],K113 - K150 and K185 - K150 and K213 - K150 and K213 - K368 and K287 - K150 and K340 - K150 and K352 - K150 and K370 - K150 and K370 - K159 and K376 - K150 and K446 - K85 and K446 - K150 and K446 - K160 and K446 - K245 and K516 - K67 and K516 - K85 and K516 - K150 and K516 - K159 and K516 - K160 and K516 - K245 and K521 - K150 and K523 - K66 and K523 - K85 and K523 - K150 and K523 - K159 and K523 - K160 and K523 - K245 and K547 - K66 and K547 - K150 and K547 - K159 and K547 - K326 and K547 - K328 and K553 - K150 and K553 - K241 and K553 - K245 and K573 - K150 and K579 - K67 and K579 - K85 and K579 - K150 and K579 - K245 and K596 - K150 and K621 - K241 and K621 - K245
same,cross-linked residues,[3],K287 - K67 and K287 - K116 and K287 - K186 and K340 - K92 and K340 - K116 and K340 - K186 and K352 - K131 and K370 - K92 and K370 - K116 and K370 - K195 and K523 - K92 and K523 - K116 and K523 - K186 and K547 - K116 and K579 - K186
same,cross-linked residues,[4],K370 - K39 and K370 - K250 and K370 - K252 and K370 - K410 and K523 - K190 and K523 - K287 and K523 - K410 and K573 - K334 and K579 - K39 and K579 - K190 and K579 - K332 and K579 - K334
"PRKCSH, P14314",cross-linked residues,[3],K158 - K116 and K191 - K116 and K436 - K116 and K436 - K186
"P4HB, P07237",cross-linked residues,[15],K71 - K360 and K71 - K374 and K409 - K153 and K415 - K360
same,cross-linked residues,[2],K31 - K370 and K71 - K213
same,cross-linked residues,[7],K31 - K150 and K71 - K150
same,cross-linked residues,[3],K31 - K186 and K71 - K116 and K71 - K186 and K114 - K116 and K114 - K186 and K271 - K116 and K308 - K116 and K326 - K116 and K350 - K92 and K350 - K116
same,cross-linked residues,[11],K31 - K86 and K71 - K86
same,cross-linked residues,[4],K31 - K39 and K31 - K190 and K31 - K334 and K71 - K190 and K71 - K287 and K71 - K332 and K103 - K190 and K114 - K334 and K308 - K190 and K309 - K190 and K309 - K410 and K326 - K334 and K409 - K334 and K436 - K190 and K436 - K334 and K444 - K190 and K444 - K334
"PPIB, P23284",cross-linked residues,[15],K84 - K360 and K92 - K62 and K92 - K153 and K92 - K360 and K116 - K43 and K116 - K62 and K116 - K153 and K116 - K209 and K116 - K355 and K116 - K360 and K116 - K368 and K116 - K374 and K165 - K360 and K165 - K374 and K186 - K64 and K186 - K153 and K186 - K209 and K186 - K360 and K186 - K368 and K195 - K153
same,cross-linked residues,[18],K84 - K90 and K116 - K90 and K116 - K170 and K165 - K90 and K186 - K210
same,cross-linked residues,[9],K116 - K48 and K116 - K191
same,cross-linked residues,[10],K84 - K466 and K116 - K332 and K116 - K417 and K116 - K425 and K186 - K129 and K186 - K417
same,cross-linked residues,[7],K116 - K159 and K186 - K150
same,cross-linked residues,[11],K116 - K86 and K186 - K86
same,cross-linked residues,[4],K84 - K39 and K92 - K39 and K116 - K39 and K116 - K190 and K116 - K250 and K116 - K252 and K116 - K334
